Screen size: about 52,000 compounds; about 1,700 (3.3%) were called active. Cut-off read from the data, not from the text of the source: active = survival mostly below about 52% (no sharp cut-off); inactive = mostly above about 56%. This is one part of the list.

The assay relates to Wild type. Description: S. aureus survival, RN4220 and DeltatarO strains – OD600, teichoic acid synthesis inhibitors, primary screen (AID 463173). Conditions: S. aureus RN4220 wild type/DeltatarO growth, OD600, 18 h, stronger effect = lower value, screened at 18.75 µg/mL (by protocol).
On to `COc1ccc(N(C)C(=O)c2cn(C)c(=O)c3cc(OC)c(OC)cc23)cc1`, for which the survival is inactive: 140%.
Next, `Cc1ccc(Cn2c(CO)cnc2SCC(=O)Nc2ccc(C)c(Cl)c2)cc1`: active: -6%; `CCN1CCc2c(sc(-n3cccc3)c2C(C)NC(=O)Nc2ccc(Br)cc2)C1` (centres undefined): inactive: 73%; `COc1ccc(NC(=O)Cn2cc(S(=O)(=O)c3ccccc3)c(=O)c3cc4c(cc32)OCO4)cc1`: inactive: 79%.
Next, `COc1ccc(N(Cc2cccs2)C(=O)c2ccc(OC)c(Cl)c2)cc1`: inactive: 90%.
To `Cc1cccc(N2CCN(C(=O)C3CCN(S(=O)(=O)c4c(C)noc4C)CC3)CC2C)c1` (centres undefined) belongs inactive: 99%; to `CCCC(=O)OCc1cnc(C)c2oc(=O)c(C(=O)Nc3cccc(C(F)(F)F)c3)cc12`, inactive: 76%; to `CCC(=O)Nc1ccccc1-c1nc2ccccc2n(CC(=O)Nc2ccccc2OC)c1=O`, inactive: 84%.
As for `CCCS(=O)(=O)c1c(S(=O)(=O)CCC)c2cc(C(C)(C)C)ccn2c1C(=O)c1ccccc1`, the survival is inactive: 102%.
Next, `Cc1c(C(=O)Nc2ccccc2)sc2nc(-c3cc4cc(Cl)ccc4oc3=O)[nH]c(=O)c12`: inactive: 86%; `COc1cccc(N2CCN(C(=O)C3CCN(S(=O)(=O)c4c(C)noc4/C=C/c4ccccc4F)CC3)CC2)c1`: inactive: 73%.
On to `COC(=O)c1ccc(NC(=O)CC2C(=O)N(c3ccccc3)C(=O)N2Cc2ccc(F)cc2)cc1` (centres undefined), for which the survival is active: 14%.
`CC1CCN(C(=O)C(C)Sc2nnc3c(n2)[nH]c2ccccc23)CC1` (centres undefined): the survival is inactive: 106%.
Next, `CCc1ccccc1N/C=C(\C#N)c1nc2ccccc2[nH]1`: inactive: 140%; `Cc1ccccc1C(=O)Nc1ccc2nc(N3CCCCC3)cc(C)c2c1`: inactive: 62%; `CC(C)(C)C(=O)NCC(c1ccc2c(c1)OCO2)N1CCOCC1` (centres undefined): active: -2%.
To `O=C(CSc1nnc(-c2cccs2)o1)Oc1ccccc1Cl` belongs inactive: 84%; to `COc1cccc(N2CCN(C(=O)c3cc4c(s3)-c3ccccc3OC4)CC2)c1`, inactive: 103%; to `CCN(CC)C(=O)c1sc2c(c1C)c(=O)n(CCc1ccccc1)c(=O)n2Cc1cc(C)ccc1C`, inactive: 88%.
Next, `O=C(Cn1ccn(-c2ccc(F)cc2)c(=O)c1=O)Nc1ccc(F)cc1`: inactive: 84%; `O=C(NCCc1ccc(Cl)cc1)c1ccc(CS(=O)(=O)c2ccc(Cl)cc2)o1`: inactive: 71%.
As to `Cc1cccc(C)c1NC(=O)C(NS(=O)(=O)c1cccs1)c1ccccc1` (centres undefined), the survival was inactive: 93%.
Next, `O=C(Cn1ncc2c3ccccc3n(Cc3cccc(Cl)c3)c2c1=O)Nc1ccc(F)cc1F`: inactive: 89%; `COc1ccc(CC(NC(C)=O)C(=O)NC2CCN(c3nc(OC)nc(OC)n3)CC2)cc1` (centres undefined): inactive: 108%; `CC(C)c1ccc(NC2=NCC(=O)N2Cc2ccccc2)cc1`: inactive: 111%.
Next, `CCc1nnc(NC(=O)CSC2=NC(=O)C(NC(C)=O)C(=O)N2)s1` (centres undefined): inactive: 107%; `COc1cc(CNC(=O)c2ccc3c(c2)c(C)c(C)n3Cc2cccc(C)c2)cc(OC)c1OC`: inactive: 135%; `CCN(Cc1ccccc1)Cc1nnnn1CCOC`: inactive: 97%.
Next, `CCOc1ccc(NC(=O)c2cc(S(=O)(=O)N3CCN(c4ccccc4F)CC3)ccc2F)cc1`: inactive: 73%; `Cc1ccc2[nH]c(=O)c3cc(C(=O)NC4CCC(C)CC4)sc3c2c1` (centres undefined): inactive: 69%; `CCCCN(C)C(=O)CSc1nc2ccccc2nc1Cc1ccc(C)cc1`: active: 0%.
For `COc1ccc(-n2c(=O)c3c4c(sc3n(C)c2=O)CN(C(C)=O)CC4)cc1`, the survival was inactive: 75%.
Next, `O=c1cc(-c2ccccc2)n2c(SCc3ccccc3Cl)nnc2[nH]1`: inactive: 66%; `COc1ccccc1CNC(=O)C(=O)NCC(c1cccs1)S(=O)(=O)c1cccs1` (centres undefined): inactive: 72%.
With `CCSc1nnc2n(-c3ccccc3)c(=O)c3c4c(sc3n12)CCCC4`, the survival is inactive: 108%.
With `Cc1ccc2oc(C(=O)N(Cc3sccc3C)C3CCS(=O)(=O)C3)c(C)c2c1` (centres undefined), the survival was inactive: 76%.
As to `CCOc1ccc(Nc2c(S(=O)(=O)c3ccc(C)cc3)cnc3ccc(F)cc23)cc1`, the survival is inactive: 64%.
Next, `COc1cccc2c1cc1c(=O)n(CC(=O)NCc3ccco3)nc(C)n12`: inactive: 85%; `COc1ccccc1C(=O)Nc1nnc2n1CCS2`: inactive: 68%.
Next, `Cc1c(Cl)cccc1NC(=O)CSc1nc(=O)n(Cc2ccco2)c2c1CCC2`: inactive: 120%; `CC(C)OCc1cc(CN2CCN(c3cccc(C(F)(F)F)c3)CC2)c(O)c2ncccc12`: inactive: 73%.
Next, `Cc1ccc(CCNC(=O)CN(c2ccc(C)cc2)S(=O)(=O)N(C)C)cc1`: inactive: 88%.
Consider `CCSc1nnc2c(n1)OC(c1ccc(OC)c(OC)c1)N(C(C)=O)c1ccccc1-2` (centres undefined), for which the survival was inactive: 70%.
To `CN(C)c1ccc(CNC(=O)C2CCN(Cc3cc4ccccc4n3Cc3ccccc3)CC2)cc1` belongs inactive: 128%.
Consider `CCCCCNC(=O)C1CCC(Cn2c(=O)c3sccc3n(CC(=O)NCc3cccc(OC)c3OC)c2=O)CC1` (centres undefined), for which the survival is inactive: 87%.
On to `CCCCC(=O)Nc1nnc(S(=O)(=O)N(C)Cc2ccccc2)s1`, for which the survival was inactive: 86%.
Next, `Cc1sc2ccccc2[n+]1CCCO`: inactive: 103%; `Cc1cccc(N(C)S(=O)(=O)c2cc3[nH]c(=O)c(=O)[nH]c3cc2C)c1`: inactive: 78%.
To `CCCCC1(C(=O)OC)NC(c2ccc(O)cc2)C2C(=O)N(c3ccccc3)C(=O)C21` (centres undefined) belongs inactive: 99%; to `O=C1C(=O)N(C2CCN(C(=O)c3ccccc3F)CC2)CCN1Cc1ccc(F)cc1`, inactive: 60%; to `Cc1cc(OCC(=O)N/N=C/c2ccc(I)o2)cc(C)c1Cl`, inactive: 113%.
To `Cc1ccc(-c2noc(CSc3nnc(C)n3-c3ccc(C)c(C)c3)n2)cc1` belongs inactive: 86%; to `COc1ccc(Cl)cc1NC(=O)CSc1ccc2nnc(CCNS(=O)(=O)c3ccccc3)n2n1`, inactive: 81%.
Consider `COc1ccc(/C=C(\C#N)c2nc3ccccc3c(=O)[nH]2)cc1OC`, for which the survival was inactive: 86%.
To `CCOc1ccc(S(=O)(=O)Nc2ccc3oc4c(c3c2)CC(C)CC4)cc1` (centres undefined) belongs inactive: 60%.
For `CCS(=O)(=O)N1CCN(S(=O)(=O)c2ccc(Cl)cc2)CC1`, the survival was inactive: 111%.
To `COc1ccccc1CNC(=O)COCc1cc(-c2ccc3c(c2)OCO3)on1` belongs inactive: 19%; to `COc1cccc(CNS(=O)(=O)c2c(C(=O)N3CCC(C)CC3)c(C)n(C)c2C)c1`, inactive: 70%.
Next, `COc1ccc(C(=O)C2CCN(CC(=O)NCc3ccc(F)cc3)CC2)cc1`: inactive: 104%; `CC(C)CN(CC(C)C)CC(O)Cn1cc(/C=C/C(=O)c2ccccc2)c2ccccc21` (centres undefined): inactive: 40%; `O=C(COc1ccc(F)cc1)OCc1cc(=O)n2nc(-c3cccs3)sc2n1`: inactive: 64%.
Next, `COc1cc(NS(=O)(=O)c2c(C)nc3sc(C)c(C)n3c2=O)cc(OC)c1`: inactive: 90%; `CCc1ccc(NC(=O)C2=CC(c3cccs3)=NS(=O)(=O)N2C)cc1`: inactive: 73%.
For `CCOc1ccccc1CNC(=O)Cn1nc(N2CCN(c3ccccc3)CC2)ccc1=O`, the survival was inactive: 82%.
For the compound `COc1ccc(C)c2sc(NC(=O)c3ccc(S(=O)(=O)N4CCCC4)cc3)nc12`, the survival is inactive: 78%.
Next, `COc1ccc(C(=O)NCc2ccc3c(c2)CCN3C(=O)c2ccc(F)cc2)cc1`: inactive: 51%; `O=C(NCc1ccc(Cl)cc1)NC1COc2ccccc2C1` (centres undefined): inactive: 79%; `CCOc1ccc(S(=O)(=O)Nc2cccc(-c3ccc(N4CCC(C)CC4)nn3)c2)cc1`: inactive: 82%.
Next, `O=CN1CCN(C(=O)c2ccc(F)cc2)CC1`: inactive: 109%; `CC1CCN(S(=O)(=O)c2ccc3c(c2)N(CC(=O)NCC(C)c2ccccc2)C(=O)CO3)CC1` (centres undefined): inactive: 80%; `Cc1c(C(=O)OCc2ccccc2)[nH]c2c1C(=O)CC(c1ccc(Cl)cc1)C2` (centres undefined): inactive: 99%.
To `Cn1nnnc1SCCCNCc1cccc(OCc2ccccc2)c1` belongs inactive: 94%; to `O=C(CSc1ncccc1C(=O)Oc1ccccc1Cl)Nc1ccccc1Cl`, inactive: 80%.
For the compound `CN(C)c1ccc(CNC(=O)C2COc3ccccc3C2)cc1` (centres undefined), the survival is active: 0%.
For `CCOc1cc(S(=O)(=O)N(C)C2CCCCC2)c(OCC)cc1-n1cnnn1`, the survival is inactive: 98%.
For `O=C(NCc1ccco1)c1ccc(Cn2c(SCc3ccccc3F)nc3cccnc32)cc1`, the survival was inactive: 74%.
To `O=c1cc2[nH][nH]c(=S)n2c(=O)[nH]1` belongs inactive: 107%; to `COc1ccc(CCNC(=O)Cn2cc(S(=O)(=O)Cc3ccc(F)cc3)c3ccccc32)cc1OC`, inactive: 83%.
On to `CCOc1ccccc1NC(=O)C1CCCN1S(=O)(=O)c1ccc2nc(-c3ccccc3)[nH]c2c1` (centres undefined), for which the survival is inactive: 55%.
To `O=C(NC1CCCCC1)c1ccc2c(c1)N(Cc1ccccc1Cl)C(=O)c1ccccc1S2` belongs inactive: 125%.
Next, `S=c1sc2ccccc2n1CN1CCOCC1`: inactive: 87%.
Next, `Cc1ccc(-c2cc(C(F)(F)F)n3ncc(-c4ccccc4)c3n2)cc1`: inactive: 62%; `CCOc1ccc(C(=O)c2oc3ccccc3c2NC(=O)c2cc(-c3ccc(C)cc3)on2)cc1`: inactive: 90%; `O=C(CN1C(=O)CSC1=O)N1CCCCC1`: inactive: 97%.
As for `O=C(Nc1cccc(F)c1)c1oc2ccccc2c1NC(=O)C12CC3CC(CC(C3)C1)C2`, the survival is inactive: 86%.
Next, `O=C(CSc1ncc(-c2ccccc2)n1Cc1ccco1)Nc1cccc(I)c1`: inactive: 102%; `CCCCCn1cc2c(c1-c1ccccc1Br)c(=O)n(C)c(=O)n2C`: inactive: 82%; `O=S(=O)(c1ccccc1)c1nnn2c1nc(NCc1ccccc1)c1cc(Cl)ccc12`: inactive: 85%.
Next, `CC(C)c1ccc(NC(=O)CCS(=O)(=O)c2ccc3c(c2)CC(=O)N3C)cc1`: inactive: 81%.

These data come from PubChem BioAssay AID463173 (ICCB-Longwood Screening Facility, Harvard Medical School, 2010).
